Assay results reported in the supplement of paper PMC8728848.
The other results are listed elsewhere or left out.

Legend:
Assay in all cases: glycan array binding signal (z-score within array); higher = stronger binding
Conditions in all cases: glycan notation: IUPAC condensed, linker removed; mutation: E227A
[1] = molecular target: Gal(b1-4)GalNAc(b1-3)[Fuc(a1-2)]Gal(b1-4)GlcNAc
Method in brief: (§1)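 The Consortium for Functional Glycomics database supplied 3228 glycan arrays, of which those lacking an available protein sequence were dropped. The binding signal, a within-array Z-score, was averaged across arrays of the same protein sequence and across linkers. Negative scores can be read as non-binding.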

[2] = molecular target: Gal(b1-4)Glc
Method in brief: as §1

[3] = molecular target: Gal(b1-4)Glc6S
Method in brief: as §1

[4] = molecular target: Gal(b1-4)GlcNAc
Method in brief: as §1

[5] = molecular target: Gal(b1-4)GlcNAc(a1-6)Gal(b1-4)GlcNAc
Method in brief: as §1

[6] = molecular target: Gal(b1-4)GlcNAc(b1-2)Man
Method in brief: as §1

[7] = molecular target: Gal(b1-4)GlcNAc(b1-2)Man(a1-3)Man(b1-4)GlcNAc(b1-4)GlcNAc
Method in brief: as §1

[8] = molecular target: Gal(b1-4)GlcNAc(b1-2)Man(a1-3)[Gal(b1-4)GlcNAc(b1-2)Man(a1-6)]Man(b1-4)GlcNAc(b1-4)GlcNAc
Method in brief: as §1

[9] = molecular target: Gal(b1-4)GlcNAc(b1-2)Man(a1-3)[Gal(b1-4)GlcNAc(b1-2)Man(a1-6)]Man(b1-4)GlcNAc(b1-4)[Fuc(a1-6)]GlcNAc
Method in brief: as §1

[10] = molecular target: Gal(b1-4)GlcNAc(b1-2)Man(a1-3)[Gal(b1-4)GlcNAc(b1-2)Man(a1-6)][Gal(b1-4)GlcNAc(b1-4)]Man(b1-4)GlcNAc(b1-4)[Fuc(a1-6)]GlcNAc
Method in brief: as §1

[11] = molecular target: Gal(b1-4)GlcNAc(b1-2)Man(a1-3)[Gal(b1-4)GlcNAc(b1-2)Man(a1-6)][GlcNAc(b1-4)]Man(b1-4)GlcNAc(b1-4)[Fuc(a1-6)]GlcNAc
Method in brief: as §1

[12] = molecular target: Gal(b1-4)GlcNAc(b1-2)Man(a1-3)[GlcNAc(b1-2)Man(a1-6)]Man(b1-4)GlcNAc(b1-4)GlcNAc
Method in brief: as §1

[13] = molecular target: Gal(b1-4)GlcNAc(b1-2)Man(a1-3)[GlcNAc(b1-4)][Gal(b1-4)GlcNAc(b1-2)Man(a1-6)]Man(b1-4)GlcNAc(b1-4)GlcNAc
Method in brief: as §1

[14] = molecular target: Gal(b1-4)GlcNAc(b1-2)Man(a1-3)[Man(a1-6)]Man(b1-4)GlcNAc(b1-4)GlcNAc
Method in brief: as §1

[15] = molecular target: Gal(b1-4)GlcNAc(b1-2)Man(a1-6)Man(b1-4)GlcNAc(b1-4)GlcNAc
Method in brief: as §1

[16] = molecular target: Gal(b1-4)GlcNAc(b1-2)Man(a1-6)[GlcNAc(b1-2)Man(a1-3)]Man(b1-4)GlcNAc(b1-4)GlcNAc
Method in brief: as §1

[17] = molecular target: Gal(b1-4)GlcNAc(b1-2)Man(a1-6)[Man(a1-3)]Man(b1-4)GlcNAc(b1-4)GlcNAc
Method in brief: as §1

[18] = molecular target: Gal(b1-4)GlcNAc(b1-2)[Gal(b1-4)GlcNAc(b1-4)]Man(a1-3)[Gal(b1-4)GlcNAc(b1-2)Man(a1-6)]Man(b1-4)GlcNAc(b1-4)GlcNAc
Method in brief: as §1

[19] = molecular target: Gal(b1-4)GlcNAc(b1-2)[Gal(b1-4)GlcNAc(b1-4)]Man(a1-3)[Gal(b1-4)GlcNAc(b1-2)[Gal(b1-4)GlcNAc(b1-6)]Man(a1-6)]Man(b1-4)GlcNAc(b1-4)GlcNAc
Method in brief: as §1

[20] = molecular target: Gal(b1-4)GlcNAc(b1-2)[Gal(b1-4)GlcNAc(b1-4)]Man(a1-3)[GlcNAc(b1-4)][Gal(b1-4)GlcNAc(b1-2)Man(a1-6)]Man(b1-4)GlcNAc(b1-4)GlcNAc
Method in brief: as §1

[21] = molecular target: Gal(b1-4)GlcNAc(b1-2)[Gal(b1-4)GlcNAc(b1-4)]Man(a1-3)[GlcNAc(b1-4)][Gal(b1-4)GlcNAc(b1-2)[Gal(b1-4)GlcNAc(b1-6)]Man(a1-6)]Man(b1-4)GlcNAc(b1-4)GlcNAc
Method in brief: as §1

[22] = molecular target: Gal(b1-4)GlcNAc(b1-2)[Gal(b1-4)GlcNAc(b1-6)]Man(a1-6)[Gal(b1-4)GlcNAc(b1-2)Man(a1-3)]Man(b1-4)GlcNAc(b1-4)GlcNAc
Method in brief: as §1

[23] = molecular target: Gal(b1-4)GlcNAc(b1-2)[Gal(b1-4)GlcNAc(b1-6)]Man(a1-6)[Gal(b1-4)GlcNAc(b1-2)Man(a1-3)]Man(b1-4)GlcNAc(b1-4)[Fuc(a1-6)]GlcNAc
Method in brief: as §1

[24] = molecular target: Gal(b1-4)GlcNAc(b1-2)[Gal(b1-4)GlcNAc(b1-6)]Man(a1-6)[GlcNAc(b1-4)][Gal(b1-4)GlcNAc(b1-2)Man(a1-3)]Man(b1-4)GlcNAc(b1-4)GlcNAc
Method in brief: as §1

[25] = molecular target: Gal(b1-4)GlcNAc(b1-2)[Gal(b1-4)GlcNAc(b1-6)]Man(a1-6)[GlcNAc(b1-4)][Gal(b1-4)GlcNAc(b1-2)[Gal(b1-4)GlcNAc(b1-4)]Man(a1-3)]Man(b1-4)GlcNAc(b1-4)[Fuc(a1-6)]GlcNAc
Method in brief: as §1

[26] = molecular target: Gal(b1-4)GlcNAc(b1-3)Gal(b1-3)GalNAc
Method in brief: as §1

[27] = molecular target: Gal(b1-4)GlcNAc(b1-3)Gal(b1-3)GlcNAc
Method in brief: as §1

[28] = molecular target: Gal(b1-4)GlcNAc(b1-3)Gal(b1-4)Glc
Method in brief: as §1

[29] = molecular target: Gal(b1-4)GlcNAc(b1-3)Gal(b1-4)GlcNAc
Method in brief: as §1

[30] = molecular target: Gal(b1-4)GlcNAc(b1-3)Gal(b1-4)GlcNAc(b1-2)Man(a1-3)[Gal(b1-4)GlcNAc(b1-3)Gal(b1-4)GlcNAc(b1-2)Man(a1-6)]Man(b1-4)GlcNAc(b1-4)GlcNAc
Method in brief: as §1

B1: Epa1-NP-mutant-E227A (Candida glabrata), Q6VBJ0 (protein)
chain: MILNPALFLNKCVCIYTTLILLLLTNGGYATSSNDISLASKDPTTFPLGCSPDITTPKKGLSMELYSYDFRKKGSYPCWDAAYLDPNYPRTGYKSHRLLAKVDGVTGNINFYYHATKGCTPQLGHLPASYNYPKPLTMTNFTMLLYGYFRPKVTGFHTFTISADDLLFVNFGAGNAFDCCRRDSSADHFGNYQAYAIWGSKTAKDELTVHLDAGVYYPIRLFYNNRAYDGALSFTFKTESNENTVSDFSEYFFSLDDTEEGCPGLISYDSSCASVKTSKIIGIDYHTETPNENLVPITKTIYHLGIPCTGTTTTPLCGSGFYDPLANKCVTINTSSTSSVTKTTSHTTSKEVSFHSSISSQKTLIPKSIPSPYGPIKSQSIPTEMETSSEISSSEYAFSDVISTPSHSPYTKKHSSLNSSSYTSTVIHSLTSYSISQGIFSTSLSEQNITSKSSTDKFSTATSMSNNITQSSIIISQFSTNNENYTTTSMHTSSDKISTETLNNSISTTTSILFSNSSTILKNNTTIISSDKDTHYHPVNPTIVCSTNKTEIICASITQPSISNSNNHWSSSVLKFNSTTVRSTLPSSAGSNETSINVPFSSSTESNTSTSSTSTSNSKMVRSTLPSSAGSNETSISVPFSSSTESNTSTSSTSTSNSKMVRSTLPSSAGSNETSINVPFSSSTESNTSTSSTSTSNSKTVRSTPFSSAGIIMTSLSQRNNKSASSYASSNSKCYNTADSCRKVHSTPSYLLTSSYTSEGVDYDCSLVSTKLKINDTNCVNNKHTTKSCLKTSVTTTIPTLEIKTARKSSSNTIGLHSYPTSSPNKSISSAPIIGYISSFKTIKTASPSYQTSDLTTITTITSLNNPGSTAVENTHESNDKSRKTSSNDISSKHSVIKETKDAVESSNKSHQTNTLKCSSIIIASSSHNSYESLGGTTLTLTLSKVYSPQNNDTLPFLEISEVNPSRTVLPESSKMMQYLTSTEERNKTARNTIATNIVSISTFHFEGEGNAIRMGYTQLLLMLIGIIVMNIGT
With B1 the “glycan array binding signal (z-score)” value [1] was 0.217, the “glycan array binding signal (z-score)” value [2] was -0.13 and the “glycan array binding signal (z-score)” value [3] was 0.839. For the same binder, the “glycan array binding signal (z-score)” value [4] was -0.058, the “glycan array binding signal (z-score)” value [5] was 0.914 and the “glycan array binding signal (z-score)” value [6] was -0.194. The “glycan array binding signal (z-score)” value [7] was -0.186, the “glycan array binding signal (z-score)” value [8] was -0.202 and the “glycan array binding signal (z-score)” value [9] was -0.197. For the same binder, the “glycan array binding signal (z-score)” value [10] was -0.227, the “glycan array binding signal (z-score)” value [11] was -0.222 and the “glycan array binding signal (z-score)” value [12] was -0.232. For the same binder, the “glycan array binding signal (z-score)” value [13] was -0.197, the “glycan array binding signal (z-score)” value [14] was -0.196 and the “glycan array binding signal (z-score)” value [15] was -0.168. The “glycan array binding signal (z-score)” value [16] was -0.216, the “glycan array binding signal (z-score)” value [17] was -0.172 and the “glycan array binding signal (z-score)” value [18] was -0.06. For the same binder, the “glycan array binding signal (z-score)” value [19] was 0.007, the “glycan array binding signal (z-score)” value [20] was -0.192 and the “glycan array binding signal (z-score)” value [21] was 0.117. The “glycan array binding signal (z-score)” value [22] was -0.144, the “glycan array binding signal (z-score)” value [23] was -0.036 and the “glycan array binding signal (z-score)” value [24] was -0.194. The “glycan array binding signal (z-score)” value [25] was 0.052, the “glycan array binding signal (z-score)” value [26] was -0.214 and the “glycan array binding signal (z-score)” value [27] was -0.204. The “glycan array binding signal (z-score)” value [28] was -0.09, the “glycan array binding signal (z-score)” value [29] was 0.012 and the “glycan array binding signal (z-score)” value [30] was 0.151.
